Consider 6 compounds from PubChem BioAssay (NCI).

SMILES strings stand for the structures.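 Compound exposure: 48 hours, 5 concentrations, 96-well plates. Here, GI50 denotes the concentration required for 50% inhibition of growth. At the TGI there is no net growth.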

This assay relates to NCI-H322M lung. In words: growth of human tumour cells (NCI), 48 h.
Take `C=C1CC[C@@H]2[C@]3(C)COC(c4cn[nH]c4-c4ccccc4)O[C@@H]3CC[C@@]2(C)[C@@H]1C/C=C1/C(=O)OCC1O` (some centres not stated): the GI50 was 16.3 µM and the TGI was 37.6 µM.
In the same order, the values of `N#CC1=C(c2cccs2)Nc2c(c(-c3ccccc3)nn2-c2ccccc2)C12C(=O)Nc1ccc(Br)cc12` (configuration not stated) are 19.4 µM and 47.6 µM.
With `C=C(C)[C@@H]1CC[C@]2(C(=O)OC)CC[C@]3(C)[C@H](CC[C@@H]4[C@@]5(C)CC[C@H](N)C(C)(C)[C@@H]5CC[C@]43C)[C@@H]12`, the GI50 was 1.7 µM and the TGI came to 3.11 µM.
For the compound `COc1ccc2[nH]c(O)c(N=NC(=O)COc3ccc(NC(=O)Nc4ccccc4)cc3)c2c1`, the GI50 was 17.4 µM and the TGI is 46.2 µM.
As for `CCCCOc1ccc(NC(=O)c2sc3nc(C)ccc3c2N)cc1`, the GI50 is 6.55 µM and the TGI amounted to 27.8 µM.
`O=c1[nH]n(C(=S)N/N=C/c2ccccc2Cl)c(=O)c2ccccc12`: the GI50 was 2.72 µM and the TGI came to 9.56 µM.
